Some of the results follow.

One assay concerns HepG2. Kind of assay: cytotoxicity call (relative viability < 0.9). To be noted: 10 µM.
`C[C@@H]1CN([C@@H](C)CO)C(=O)c2cc(NC(=O)C3CC3)ccc2O[C@@H]1CN(C)Cc1ccc2c(c1)OCO2`: the cytotoxicity call was “inactive”.

As to `CC(C)NC(=O)N(C)C[C@@H]1Oc2ccc(NS(=O)(=O)c3ccccc3)cc2C(=O)N([C@H](C)CO)C[C@@H]1C`, the cytotoxicity call is “inactive”.

In the case of `O=C([O-])c1cc(=O)c2c(OCC(O)COc3cccc4oc(C(=O)[O-])cc(=O)c34)cccc2o1.[Na+].[Na+]`, the cytotoxicity call is “inactive”.

With `CC(C)(O)/C=C/C(=O)[C@](C)(O)[C@H]1[C@H](O)C[C@@]2(C)[C@@H]3CC=C4[C@@H](C=C(O[C@@H]5O[C@H](CO)[C@@H](O)[C@H](O)[C@H]5O)C(=O)C4(C)C)[C@]3(C)C(=O)C[C@]12C`, the cytotoxicity call was “inactive”.

`CNC1CCC(c2ccc(Cl)c(Cl)c2)c2ccccc21.Cl` (stereo not given): the cytotoxicity call was “active”.

With `COc1ccc(CN(C)C[C@@H]2OCCCC[C@H](C)Oc3ccc(NS(=O)(=O)c4ccc(C)cc4)cc3C(=O)N([C@@H](C)CO)C[C@@H]2C)cc1`, the cytotoxicity call was “inactive”.

In the case of `NC(=O)NN=Cc1ccc([N+](=O)[O-])o1`, the cytotoxicity call was “active”.

As for `C[C@H](O)C#Cc1ccc2c(c1)O[C@@H](CN(C)C(=O)Cc1ccccn1)[C@@H](C)CN([C@@H](C)CO)S2(=O)=O`, the cytotoxicity call is “inactive”.

Consider `COc1nc(N2CCOCC2)nc(N)c1[N+](=O)[O-]`, for which the cytotoxicity call is “inactive”.

As for `Cc1ccc(S(=O)(=O)N(C)C[C@H]2OCCCC[C@@H](C)Oc3ccc(NC(=O)Nc4cccc5ccccc45)cc3C(=O)N([C@H](C)CO)C[C@@H]2C)cc1`, the cytotoxicity call was “inactive”.

Turning to `COc1cccc(C(=O)Nc2ccc3c(c2)C(=O)N(C)[C@H]2CC[C@H](CC(=O)NCCCN4CCOCC4)O[C@H]2CO3)c1`, the cytotoxicity call is “inactive”.

A further assay relates to S. aureus RN4220. The experiment in a line: growth inhibition call (relative growth <= 0.2). To be noted: 50 µM.
In the case of `C[C@@H]1CN([C@H](C)CO)C(=O)Cc2cc(NC(=O)NC3CCCCC3)ccc2O[C@@H]1CN(C)S(C)(=O)=O`, the growth inhibition call is “inactive”.

For the molecule `CC1CCN(S(=O)(=O)c2c[nH]cn2)CC1`, the growth inhibition call is “inactive”.

As to `O=C1OCC=C[C@H]2O[C@@]34C=CCN(CCN5CCOCC5)C(=O)[C@H]3N(CCCO)C(=O)[C@@H]4[C@@H]12`, the growth inhibition call is “inactive”.

Turning to `COc1ccc(NC(=O)Nc2ccc3c(c2)C(=O)N([C@@H](C)CO)C[C@@H](C)[C@@H](CN(C)C(=O)NC(C)C)OCCCC[C@@H](C)O3)cc1`, the growth inhibition call was “inactive”.

Consider `COc1ccc(S(=O)(=O)N(C)C[C@@H]2OCCCC[C@H](C)Oc3ccc(NC(=O)C4CCCCC4)cc3C(=O)N([C@@H](C)CO)C[C@H]2C)cc1`, for which the growth inhibition call is “inactive”.

With `CCS(=O)(=O)N1C[C@]2(C1)CN([C@H](CO)c1c2c2ccc(cc2n1C)OC)C(=O)Nc1c(noc1C)C`, the growth inhibition call is “inactive”.

Take `C=CCCCCCCCCCCCc1ccco1`: the growth inhibition call is “inactive”.

Regarding `C[C@H](CO)N1C[C@H](C)[C@@H](CN(C)S(=O)(=O)c2ccc(F)cc2)Oc2ccc(NC(=O)Cn3cnnn3)cc2CC1=O`, the growth inhibition call was “inactive”.

As to `Cc1ccc(S(=O)(=O)Nc2ccc3c(c2)C(=O)N([C@H](C)CO)C[C@@H](C)[C@H](CN(C)Cc2ccccc2)OCCCC[C@@H](C)O3)cc1`, the growth inhibition call is “inactive”.

For `O=C(C[C@@H]1CC[C@H]2[C@@H](COC[C@@H](O)CN2S(=O)(=O)c2ccccc2F)O1)NCc1ccccc1Cl`, the growth inhibition call is “inactive”.

Turning to `C[C@@H]1CN([C@H](C)CO)C(=O)c2cc(-c3ccc(C(=O)N(C)C)cc3)cnc2O[C@H]1CN(C)C(=O)c1cccnc1`, the growth inhibition call is “inactive”.

Take `CCc1c(C)c2cc3c(-c4ccccc4)coc3cc2oc1=O`: the growth inhibition call was “inactive”.

Regarding `COc1ccc(NC(=O)N(C)C[C@H]2OCCCC[C@@H](C)Oc3ccc(NC(=O)C4CCCCC4)cc3C(=O)N([C@@H](C)CO)C[C@@H]2C)cc1`, the growth inhibition call was “inactive”.

For `C[C@@H]1CN([C@H](C)CO)C(=O)Cc2cc(NS(=O)(=O)c3cn(C)cn3)ccc2O[C@H]1CN(C)S(=O)(=O)c1cccs1`, the growth inhibition call is “inactive”.

Consider `CC(C)NC(=O)N(C)C[C@H]1OCCCC[C@H](C)Oc2ccc(NS(C)(=O)=O)cc2C(=O)N([C@H](C)CO)C[C@@H]1C`, for which the growth inhibition call is “inactive”.

Take `COc1ccc(S(=O)(=O)N(C)C[C@H]2OCCCC[C@@H](C)Oc3ccc(NC(=O)Nc4ccc(F)cc4)cc3C(=O)N([C@H](C)CO)C[C@@H]2C)cc1`: the growth inhibition call was “inactive”.

`C[C@@H]1CN([C@H](C)CO)C(=O)Cc2cc(NS(=O)(=O)c3cn(C)cn3)ccc2O[C@@H]1CN(C)C(=O)NC1CCCCC1`: the growth inhibition call was “inactive”.

Take `COC(=O)c1cccc(NC(=N)N=C(N)N)c1`: the growth inhibition call is “inactive”.

For `C[C@@H]1CN([C@H](C)CO)C(=O)c2cc(NC(=O)Nc3ccc4c(c3)OCO4)ccc2O[C@H]1CN(C)C(=O)Nc1ccc(C(F)(F)F)cc1`, the growth inhibition call was “inactive”.
